Holding throughout (details): 20 mM HEPES pH 7.9, 100 mM NaCl, 1 mM DTT, 0.2 mg/mL BSA, 0.02% Triton X-100, 2% milk, 0.4 mg/mL salmon testes DNA; 1 h; temperature not stated; high values mean tight binding; double strand, one strand shown; sequences stand for … in GCCTAGCAC…GTGCTAGGTCTTGATTCGCTTGACGCTGCTG
The target of one assay is PU.1 (IVT) (UniProt P17947). The assay can be described thus: protein-binding microarray (PBM).
For assay [1], the target named is T1, FLI1 (endogenous, THP-1 nuclear extract) (UniProt Q01543).
T1 sequence: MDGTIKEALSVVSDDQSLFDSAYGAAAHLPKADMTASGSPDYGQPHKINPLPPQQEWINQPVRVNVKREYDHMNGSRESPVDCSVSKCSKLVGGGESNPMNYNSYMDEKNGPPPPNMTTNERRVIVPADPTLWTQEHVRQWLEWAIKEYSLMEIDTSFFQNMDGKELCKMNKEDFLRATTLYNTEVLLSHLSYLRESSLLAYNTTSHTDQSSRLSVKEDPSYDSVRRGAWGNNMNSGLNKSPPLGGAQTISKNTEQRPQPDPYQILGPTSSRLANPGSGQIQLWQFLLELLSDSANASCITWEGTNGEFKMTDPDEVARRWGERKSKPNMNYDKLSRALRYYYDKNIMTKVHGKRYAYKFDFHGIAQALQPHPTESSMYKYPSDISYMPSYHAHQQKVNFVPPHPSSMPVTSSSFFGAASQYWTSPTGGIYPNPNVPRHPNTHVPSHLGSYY
Briefly: nuclear extract protein-binding microarray (nextPBM).

For assay [2], the system named is PU.1 (endogenous, THP-1 nuclear extract) + IRF8 (endogenous, THP-1 nuclear extract). The description is as above.

Some of the results follow. For part of these data: At the low end of the ranking, values are background and their order means little. For part of these data: Measured with an extract: partners may take part in the binding.

In the case of TCTCAGAGGAACTGAAACTG, the values for the binding signal (with PU.1 (IVT); in assay [1]; in assay [2]) were 1.39 z-score, 0.846 z-score and 23.9 z-score, respectively.

For TGGGAGAGGAAGTGAAACTA, the binding signal with PU.1 (IVT) came out at 3.94 z-score; in assay [1], 4.05 z-score; in assay [2], 70.2 z-score.

Take GATCAGAGGAACTGAAAGCT: the results for the binding signal (in the assay with PU.1 (IVT); in assay [1]; in assay [2]) were 1.34 z-score, 0.772 z-score and 0.939 z-score, respectively.

For the sequence AAAAAGAGGAAGAGAAACTA, the binding signal was 5.79 z-score with PU.1 (IVT), 2.51 z-score in assay [1] and 34.2 z-score in assay [2].

Consider GGGCAGAGGAAGTGAAACTA, for which the binding signal was found to be 3.41 z-score with PU.1 (IVT), 3.48 z-score in assay [1] and 55.2 z-score in assay [2].

With CAAAGGAGGAACTGAAACCA, the results for the binding signal (in the assay with PU.1 (IVT); in assay [1]; in assay [2]) were 3.2 z-score, 2.13 z-score and 43.9 z-score, respectively.

Take GCCTTGGGGAAGTGAAACTT: the values for the binding signal (in the assay with PU.1 (IVT); in assay [1]; in assay [2]) were 3.47 z-score, 2.41 z-score and 49.2 z-score, respectively.

Turning to ACTGAAGGGAAGAGAAACTA, the binding signal was 0.76 z-score with PU.1 (IVT), 0.0274 z-score in assay [1] and 3.5 z-score in assay [2].

As to CAGAATAGGAAGTGAAACTT, the results for the binding signal (in the assay with PU.1 (IVT); in assay [1]; in assay [2]) were 3.98 z-score, 3.2 z-score and 51.5 z-score, respectively.

TGAGAGGAGAAGTGAAACCT: the binding signal in the assay with PU.1 (IVT) came to 1.44 z-score; in assay [1] it was 0.807 z-score; in assay [2] it was 23.9 z-score.

Take AAGAAGAGGAAGAGAAACTT: the binding signal in the assay with PU.1 (IVT) worked out at 3.2 z-score; in assay [1] it was 1.69 z-score; in assay [2] it was 3.84 z-score.

Take TGAGACAGGAAGTGAAACCA: the binding signal in the assay with PU.1 (IVT) amounted to 2.99 z-score; in assay [1], 5.6 z-score; in assay [2] it was 54.4 z-score.

Regarding ATAAAGAGGAAGCGAAACTG, the results for the binding signal (with PU.1 (IVT); in assay [1]; in assay [2]) were 4.76 z-score, 3.21 z-score and 72.7 z-score, respectively.

In the case of AGAAAGAGGAAGGGAAACTT, the binding signal is 4.67 z-score with PU.1 (IVT), 2.21 z-score in assay [1] and 6.8 z-score in assay [2].

GTATTCAGGAACTGAAACTC: the binding signal came to 1.7 z-score with PU.1 (IVT), 1.61 z-score in assay [1] and 23.1 z-score in assay [2].

Regarding TAAAGGAGGAAGTGAAACCA, the binding signal is 5.84 z-score in the assay with PU.1 (IVT), 4.13 z-score in assay [1] and 70.7 z-score in assay [2].

Regarding TGAGAGGAGAAGTGGAACCT, the binding signal was determined as 1.79 z-score in the assay with PU.1 (IVT), 0.599 z-score in assay [1] and 0.758 z-score in assay [2].

On to TGAAACAGGAAGTGAAACGA, for which the binding signal is 6.59 z-score in the assay with PU.1 (IVT), 5.63 z-score in assay [1] and 17.4 z-score in assay [2].

On to TGAACCAGGAAGTGAAACCA, for which the binding signal is 3.67 z-score with PU.1 (IVT), 3.9 z-score in assay [1] and 59.7 z-score in assay [2].

On to AAAAAAAGGAAAAGAAAGTA, for which the results for the binding signal (with PU.1 (IVT); in assay [1]; in assay [2]) were 0.585 z-score, 1.15 z-score and 0.351 z-score, respectively.

Consider CTTCCAGGGAAGTGAAAGCA, for which the binding signal with PU.1 (IVT) was determined as 1.08 z-score; in assay [1], 0.688 z-score; in assay [2], 6.27 z-score.

GACAAGAGGAACTGAAAGCT: the figures for the binding signal (in the assay with PU.1 (IVT); in assay [1]; in assay [2]) were 2.96 z-score, 1.17 z-score and 3.24 z-score, respectively.

For the sequence GAAAAGGAGAACTGAAACTT, the binding signal in the assay with PU.1 (IVT) was 3.59 z-score; in assay [1], 1.46 z-score; in assay [2], 32.7 z-score.

Regarding CAGAGAGGGAAGTGAAAGCA, the binding signal with PU.1 (IVT) stood at 3.17 z-score; in assay [1] it was 2.08 z-score; in assay [2], 9.07 z-score.

For GATACGAGGAACTGAAAGCT, the binding signal with PU.1 (IVT) was determined as 1.42 z-score; in assay [1], 0.172 z-score; in assay [2], 1.84 z-score.

As for AAAAAAAGGAAATGAAAATA, the binding signal is 3.87 z-score in the assay with PU.1 (IVT), 2.28 z-score in assay [1] and 0.864 z-score in assay [2].

As to CAAATTAGGAAGTGAAACTG, the binding signal with PU.1 (IVT) came out at 4.56 z-score; in assay [1] it was 3.7 z-score; in assay [2], 63.8 z-score.

For GATTAGAGGAACTGAAAGCT, the results for the binding signal (with PU.1 (IVT); in assay [1]; in assay [2]) were 3.32 z-score, 1.4 z-score and 2.97 z-score, respectively.

In the case of TGAGAGGAGAAGTAAAACCT, the binding signal is 1.45 z-score with PU.1 (IVT), 0.381 z-score in assay [1] and -0.959 z-score in assay [2].

Turning to CCTGGGAGGAAGTGAAACTC, the binding signal with PU.1 (IVT) amounted to 3.42 z-score; in assay [1], 3.63 z-score; in assay [2], 49.1 z-score.

In the case of AAAAACAGGAAGAGAAACTG, the binding signal came to 4.89 z-score with PU.1 (IVT), 3.02 z-score in assay [1] and 8.7 z-score in assay [2].

In the case of CACAAGGGGAAGTGAAACTC, the binding signal with PU.1 (IVT) came out at 4.77 z-score; in assay [1], 3.63 z-score; in assay [2] it was 50 z-score.

Turning to GAAATAAGGAACTGAAACTG, the binding signal came out at 4.78 z-score with PU.1 (IVT), 2.6 z-score in assay [1] and 45 z-score in assay [2].

Regarding TAAAGGAAGAACTGAAACCA, the binding signal is 0.677 z-score with PU.1 (IVT), 0.594 z-score in assay [1] and 15.6 z-score in assay [2].

For CTGCCAGGGAAGTTAAAGCA, the binding signal with PU.1 (IVT) was 1.25 z-score; in assay [1], 0.175 z-score; in assay [2] it was -0.862 z-score.

TAAAAGAGGAACTGAAACCA: the values for the binding signal (with PU.1 (IVT); in assay [1]; in assay [2]) were 6.72 z-score, 3.57 z-score and 70.4 z-score, respectively.

With TGGCAGAGGAAGTGAAAATA, the binding signal worked out at 3.29 z-score with PU.1 (IVT), 2.72 z-score in assay [1] and 2.81 z-score in assay [2].

TGAGAGAAGAAGTGAAACCT: the binding signal with PU.1 (IVT) turned out to be 0.83 z-score; in assay [1] it was 0.145 z-score; in assay [2], 23.7 z-score.

As for TAAAGGAGGAACTGATACCA, the binding signal worked out at 3.55 z-score with PU.1 (IVT), 1.2 z-score in assay [1] and 6.52 z-score in assay [2].

Regarding CTGGCAGGGAACTGGAACTC, the values for the binding signal (in the assay with PU.1 (IVT); in assay [1]; in assay [2]) were 0.687 z-score, 0.43 z-score and -0.425 z-score, respectively.

As to ATCTTGCAGAAGTGAAACTC, the binding signal with PU.1 (IVT) worked out at 0.71 z-score; in assay [1], 0.00275 z-score; in assay [2], 29.2 z-score.

Take TAAAACAGGAAGTGAAACCA: the results for the binding signal (with PU.1 (IVT); in assay [1]; in assay [2]) were 7.54 z-score, 5.58 z-score and 78.2 z-score, respectively.

Regarding TGCATGAGGAAGTGAAAGAA, the binding signal in the assay with PU.1 (IVT) came out at 5.11 z-score; in assay [1] it was 2.34 z-score; in assay [2] it was 3.95 z-score.

With TGAGAGGAGAAGTGAAAGCT, the results for the binding signal (in the assay with PU.1 (IVT); in assay [1]; in assay [2]) were 1.16 z-score, 0.2 z-score and 2.08 z-score, respectively.

CGGCCAGGGAAGTGAAAGCA: the binding signal in the assay with PU.1 (IVT) was 1 z-score; in assay [1], 0.821 z-score; in assay [2] it was 6 z-score.

For the sequence CAGAGGGGGAAGTGAAACCC, the binding signal in the assay with PU.1 (IVT) is 4.03 z-score; in assay [1], 2.76 z-score; in assay [2], 27.9 z-score.

As to TAACGGAGGAACTGAAACCA, the binding signal amounted to 0.988 z-score in the assay with PU.1 (IVT), 0.531 z-score in assay [1] and 16.1 z-score in assay [2].

As to TCAAGGAGGAACTGAAACCA, the binding signal with PU.1 (IVT) came to 2.91 z-score; in assay [1], 1.63 z-score; in assay [2], 40.3 z-score.

For CTGCCAGGGAAGTGAAATCA, the values for the binding signal (with PU.1 (IVT); in assay [1]; in assay [2]) were 1.1 z-score, 0.527 z-score and 0.142 z-score, respectively.

Consider GAAAAGAGGAACAGAAACTA, for which the binding signal in the assay with PU.1 (IVT) came to 4.92 z-score; in assay [1], 3.06 z-score; in assay [2], 41.7 z-score.

On to GATAAGAGTAACTGAAAGCT, for which the binding signal is -0.246 z-score with PU.1 (IVT), -1.12 z-score in assay [1] and -0.37 z-score in assay [2].

Consider TGAGAGGAGAAGTGTAACCT, for which the figures for the binding signal (in the assay with PU.1 (IVT); in assay [1]; in assay [2]) were 0.923 z-score, 0.0671 z-score and 0.468 z-score, respectively.

On to TGGCAGAGGAAGTGACACTA, for which the binding signal in the assay with PU.1 (IVT) was 3.46 z-score; in assay [1] it was 2.51 z-score; in assay [2], -0.269 z-score.

Take TGGCAAAGGAAGTGAAACTA: the binding signal came to 1.48 z-score in the assay with PU.1 (IVT), 2.68 z-score in assay [1] and 56.6 z-score in assay [2].

Take AAAAAAACGAAATGAAAGTA: the binding signal with PU.1 (IVT) was -0.0717 z-score; in assay [1] it was 0.0985 z-score; in assay [2], 10.1 z-score.

As to AAAAAGAGGATGTGAAACTA, the binding signal came out at 4.49 z-score with PU.1 (IVT), 3.25 z-score in assay [1] and 64 z-score in assay [2].

With TAGAAGAGGAACTGAAACTT, the binding signal with PU.1 (IVT) was determined as 4.3 z-score; in assay [1], 2.98 z-score; in assay [2], 34.2 z-score.

With CTGCCAGGGACGTGAAAGCA, the binding signal in the assay with PU.1 (IVT) is -0.111 z-score; in assay [1] it was -0.552 z-score; in assay [2], -0.0127 z-score.

As to CCCAGAGGGAAGTGAAACCA, the results for the binding signal (with PU.1 (IVT); in assay [1]; in assay [2]) were 2.42 z-score, 2.56 z-score and 43.4 z-score, respectively.

In the case of AAAAGGAGGAAGTGAAAGTA, the binding signal came to 6.69 z-score in the assay with PU.1 (IVT), 4.47 z-score in assay [1] and 56.2 z-score in assay [2].

For the origin of these results see article PMC6451091.
